Reference: US20090018029A1 (AMBRX, published 2009)

Molecular target: T1, human growth hormone receptor on IM-9 cells (human, UniProt P10912 19-638)
T1 sequence (looked up): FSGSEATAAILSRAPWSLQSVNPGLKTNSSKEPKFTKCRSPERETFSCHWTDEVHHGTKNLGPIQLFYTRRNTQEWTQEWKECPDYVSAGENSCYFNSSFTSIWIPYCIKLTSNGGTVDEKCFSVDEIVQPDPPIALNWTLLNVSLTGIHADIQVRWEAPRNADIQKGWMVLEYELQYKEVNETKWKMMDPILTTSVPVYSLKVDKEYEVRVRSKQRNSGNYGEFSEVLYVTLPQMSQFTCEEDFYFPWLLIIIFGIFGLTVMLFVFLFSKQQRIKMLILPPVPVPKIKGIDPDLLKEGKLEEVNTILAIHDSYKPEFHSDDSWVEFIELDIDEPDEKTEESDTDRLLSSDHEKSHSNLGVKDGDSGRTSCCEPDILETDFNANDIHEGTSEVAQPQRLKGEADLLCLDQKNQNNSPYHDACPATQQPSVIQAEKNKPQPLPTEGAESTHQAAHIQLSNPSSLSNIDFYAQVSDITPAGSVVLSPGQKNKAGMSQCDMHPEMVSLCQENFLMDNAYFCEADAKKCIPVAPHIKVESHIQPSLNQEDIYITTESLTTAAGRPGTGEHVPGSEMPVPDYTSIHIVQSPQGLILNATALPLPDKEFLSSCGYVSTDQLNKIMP
Experiment: cell-based or functional assay

EC50 of STAT5 phosphorylation in IM-9 cells (phospho-STAT5 MFI, flow cytometry): > 200 µM
B1: hGH G120R (ligand)
chain: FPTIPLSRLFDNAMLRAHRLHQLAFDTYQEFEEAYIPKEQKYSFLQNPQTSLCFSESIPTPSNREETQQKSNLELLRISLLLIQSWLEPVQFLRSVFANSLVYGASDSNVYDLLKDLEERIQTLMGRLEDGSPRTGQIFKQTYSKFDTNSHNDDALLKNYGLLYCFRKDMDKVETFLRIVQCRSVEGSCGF
